Experimental data taken from publication PMC4705382.
Results are given in words; binding and its absence hold for the method and conditions named. Binding seen in cells or lysates may run through a third protein. Some binding calls cover weakened binding; strength is not graded here. Tags and fused reporters may be left off the sequences shown.

Amino acid sequences for entries named in this document (tags omitted).
UniProt Q8IXI2: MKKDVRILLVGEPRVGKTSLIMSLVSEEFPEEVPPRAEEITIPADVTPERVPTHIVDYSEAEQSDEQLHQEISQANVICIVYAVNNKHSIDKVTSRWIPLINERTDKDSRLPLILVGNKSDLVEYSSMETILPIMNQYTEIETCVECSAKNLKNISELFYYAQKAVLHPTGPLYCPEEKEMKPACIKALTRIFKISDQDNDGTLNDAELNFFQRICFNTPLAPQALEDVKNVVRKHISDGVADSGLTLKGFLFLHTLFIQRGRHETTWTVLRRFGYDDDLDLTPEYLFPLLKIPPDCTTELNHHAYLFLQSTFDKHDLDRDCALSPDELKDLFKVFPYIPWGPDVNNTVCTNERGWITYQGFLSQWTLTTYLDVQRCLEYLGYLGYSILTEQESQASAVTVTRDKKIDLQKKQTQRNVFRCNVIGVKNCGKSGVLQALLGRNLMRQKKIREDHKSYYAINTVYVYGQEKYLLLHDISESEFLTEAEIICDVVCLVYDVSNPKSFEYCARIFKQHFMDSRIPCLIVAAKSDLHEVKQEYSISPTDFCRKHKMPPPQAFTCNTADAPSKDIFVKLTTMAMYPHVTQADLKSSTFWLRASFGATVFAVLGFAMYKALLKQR
UniProt Q8IXI1: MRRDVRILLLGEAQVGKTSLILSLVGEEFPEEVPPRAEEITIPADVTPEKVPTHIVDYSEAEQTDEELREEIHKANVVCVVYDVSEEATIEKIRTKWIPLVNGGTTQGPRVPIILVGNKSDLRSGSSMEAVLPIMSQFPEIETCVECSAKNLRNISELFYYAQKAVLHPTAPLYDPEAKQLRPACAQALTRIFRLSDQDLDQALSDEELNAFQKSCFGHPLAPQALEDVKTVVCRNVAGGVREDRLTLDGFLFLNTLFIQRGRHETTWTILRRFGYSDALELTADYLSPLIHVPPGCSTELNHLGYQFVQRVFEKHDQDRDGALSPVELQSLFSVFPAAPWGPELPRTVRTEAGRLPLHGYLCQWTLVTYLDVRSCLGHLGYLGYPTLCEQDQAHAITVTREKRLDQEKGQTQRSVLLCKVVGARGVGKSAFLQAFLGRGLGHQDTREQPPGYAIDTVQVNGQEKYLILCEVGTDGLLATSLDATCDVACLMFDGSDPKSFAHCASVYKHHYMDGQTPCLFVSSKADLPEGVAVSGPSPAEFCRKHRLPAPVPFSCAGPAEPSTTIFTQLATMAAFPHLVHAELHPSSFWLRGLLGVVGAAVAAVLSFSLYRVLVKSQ

What was measured:
^GFPMiro1 = ^GFPMiro1 (UniProt Q8IXI2); test: co-IP; GFP trap beads (Chromotek) on lysates of co-transfected COS7 cells; lysis buffer 50 mM HEPES pH 7.5, 0.5% Triton X-100, 150 mM NaCl, 1 mM EDTA; Western blot
^GFPMiro2 = ^GFPMiro2 (UniProt Q8IXI1); test: as above
^GFPTRAK1 (mouse) = biological target: T1, ^GFPTRAK1 (mouse) (UniProt Q6PD31); test: as above
T1 sequence: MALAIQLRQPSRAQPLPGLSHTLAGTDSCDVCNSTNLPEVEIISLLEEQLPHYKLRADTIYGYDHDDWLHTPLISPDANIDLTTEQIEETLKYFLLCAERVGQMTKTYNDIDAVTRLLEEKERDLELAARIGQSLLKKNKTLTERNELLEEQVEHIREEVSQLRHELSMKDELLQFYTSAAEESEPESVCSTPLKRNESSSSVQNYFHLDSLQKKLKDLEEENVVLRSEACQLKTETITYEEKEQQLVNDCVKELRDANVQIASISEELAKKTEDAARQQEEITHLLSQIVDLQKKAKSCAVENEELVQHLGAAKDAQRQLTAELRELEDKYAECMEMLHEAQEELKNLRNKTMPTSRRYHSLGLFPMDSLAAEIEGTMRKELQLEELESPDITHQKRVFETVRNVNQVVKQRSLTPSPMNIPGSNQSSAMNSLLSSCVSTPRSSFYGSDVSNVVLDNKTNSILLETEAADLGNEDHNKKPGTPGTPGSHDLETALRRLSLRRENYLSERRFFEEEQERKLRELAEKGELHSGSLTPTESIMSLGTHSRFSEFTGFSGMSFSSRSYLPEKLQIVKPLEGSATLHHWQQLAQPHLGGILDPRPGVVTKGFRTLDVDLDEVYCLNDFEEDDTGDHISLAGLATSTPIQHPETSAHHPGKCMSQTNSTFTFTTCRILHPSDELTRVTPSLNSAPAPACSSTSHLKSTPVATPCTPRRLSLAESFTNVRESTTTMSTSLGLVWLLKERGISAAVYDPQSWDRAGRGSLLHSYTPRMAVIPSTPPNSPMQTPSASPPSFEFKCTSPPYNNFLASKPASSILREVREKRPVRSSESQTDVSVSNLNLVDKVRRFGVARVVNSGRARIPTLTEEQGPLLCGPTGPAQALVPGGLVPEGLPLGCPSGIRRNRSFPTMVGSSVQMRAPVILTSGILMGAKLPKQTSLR

^GFPTRAK2 (mouse) = biological target: T2, ^GFPTRAK2 (mouse) (UniProt Q6P9N8); test: as above
T2 sequence: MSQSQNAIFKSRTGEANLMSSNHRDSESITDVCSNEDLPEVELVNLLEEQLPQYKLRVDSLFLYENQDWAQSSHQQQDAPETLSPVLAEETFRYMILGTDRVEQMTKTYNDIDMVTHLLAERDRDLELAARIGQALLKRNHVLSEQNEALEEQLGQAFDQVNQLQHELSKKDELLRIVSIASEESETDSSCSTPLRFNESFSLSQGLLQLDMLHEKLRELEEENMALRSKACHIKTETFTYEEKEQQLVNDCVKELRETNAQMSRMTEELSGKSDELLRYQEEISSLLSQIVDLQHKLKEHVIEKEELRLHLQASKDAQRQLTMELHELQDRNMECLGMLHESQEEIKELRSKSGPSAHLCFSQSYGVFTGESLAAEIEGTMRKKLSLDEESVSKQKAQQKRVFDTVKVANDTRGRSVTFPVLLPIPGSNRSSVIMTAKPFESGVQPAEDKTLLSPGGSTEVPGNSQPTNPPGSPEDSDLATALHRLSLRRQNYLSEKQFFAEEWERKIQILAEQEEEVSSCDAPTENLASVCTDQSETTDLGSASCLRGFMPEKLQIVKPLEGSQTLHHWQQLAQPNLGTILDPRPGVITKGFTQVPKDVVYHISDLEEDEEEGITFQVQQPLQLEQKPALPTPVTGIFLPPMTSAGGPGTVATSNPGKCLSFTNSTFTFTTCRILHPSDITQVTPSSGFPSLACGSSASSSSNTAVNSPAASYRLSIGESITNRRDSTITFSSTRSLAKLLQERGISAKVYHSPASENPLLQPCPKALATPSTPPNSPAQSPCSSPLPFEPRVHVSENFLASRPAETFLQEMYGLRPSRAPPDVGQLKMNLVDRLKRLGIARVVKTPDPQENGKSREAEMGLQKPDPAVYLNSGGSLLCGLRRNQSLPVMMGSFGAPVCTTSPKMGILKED

^mycTRAK2-(1–700) = biological target: T3, ^mycTRAK2-(1–700) (UniProt Q8R2H7); test: co-IP; rabbit anti-Myc beads (Sigma) on lysates of co-transfected COS7 cells; lysis buffer 50 mM HEPES pH 7.5, 0.5% Triton X-100, 150 mM NaCl, 1 mM EDTA; Western blot
T3 sequence: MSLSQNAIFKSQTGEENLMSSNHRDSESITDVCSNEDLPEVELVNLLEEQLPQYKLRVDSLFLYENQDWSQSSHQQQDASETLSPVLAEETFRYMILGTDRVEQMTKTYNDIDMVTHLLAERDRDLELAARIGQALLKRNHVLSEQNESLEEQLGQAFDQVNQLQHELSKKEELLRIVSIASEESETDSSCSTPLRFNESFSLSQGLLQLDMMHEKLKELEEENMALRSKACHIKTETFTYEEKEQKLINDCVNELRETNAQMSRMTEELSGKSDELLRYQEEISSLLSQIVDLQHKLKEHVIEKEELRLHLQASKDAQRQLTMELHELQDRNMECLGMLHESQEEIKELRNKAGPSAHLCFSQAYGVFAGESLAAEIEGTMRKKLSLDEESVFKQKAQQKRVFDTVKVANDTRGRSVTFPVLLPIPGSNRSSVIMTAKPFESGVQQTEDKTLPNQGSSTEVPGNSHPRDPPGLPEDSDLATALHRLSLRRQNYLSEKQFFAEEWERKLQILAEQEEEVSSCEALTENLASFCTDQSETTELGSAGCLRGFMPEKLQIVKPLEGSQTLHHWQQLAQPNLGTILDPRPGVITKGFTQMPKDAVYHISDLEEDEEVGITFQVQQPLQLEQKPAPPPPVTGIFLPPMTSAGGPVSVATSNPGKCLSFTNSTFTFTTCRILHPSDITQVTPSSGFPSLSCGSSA

Measured: binding

B1: Untagged human DISC1 (protein, UniProt Q9NRI5 1-854)
chain: MPGGGPQGAPAAAGGGGVSHRAGSRDCLPPAACFRRRRLARRPGYMRSSTGPGIGFLSPAVGTLFRFPGGVSGEESHHSESRARQCGLDSRGLLVRSPVSKSAAAPTVTSVRGTSAHFGIQLRGGTRLPDRLSWPCGPGSAGWQQEFAAMDSSETLDASWEAACSDGARRVRAAGSLPSAELSSNSCSPGCGPEVPPTPPGSHSAFTSSFSFIRLSLGSAGERGEAEGCPPSREAESHCQSPQEMGAKAASLDGPHEDPRCLSRPFSLLATRVSADLAQAARNSSRPERDMHSLPDMDPGSSSSLDPSLAGCGGDGSSGSGDAHSWDTLLRKWEPVLRDCLLRNRRQMEVISLRLKLQKLQEDAVENDDYDKAETLQQRLEDLEQEKISLHFQLPSRQPALSSFLGHLAAQVQAALRRGATQQASGDDTHTPLRMEPRLLEPTAQDSLHVSITRRDWLLQEKQQLQKEIEALQARMFVLEAKDQQLRREIEEQEQQLQWQGCDLTPLVGQLSLGQLQEVSKALQDTLASAGQIPFHAEPPETIRSLQERIKSLNLSLKEITTKVCMSEKFCSTLRKKVNDIETQLPALLEAKMHAISGNHFWTAKDLTEEIRSLTSEREGLEGLLSKLLVLSSRNVKKLGSVKEDYNRLRREVEHQETAYETSVKENTMKYMETLKNKLCSCKCPLLGKVWEADLEACRLLIQSLQLQEARGSLSVEDERQMDDLEGAAPPIPPRLHSEDKRKTPLKVLEEWKTHLIPSLHCAGGEQKEESYILSAELGEKCEDIGKKLLYLEDQLHTAIHSHDEDLIQSLRRELQMVKETLQAMILQLQPAKEAGEREAAASCMTAGVHEAQA
binds: ^GFPMiro1 | ^GFPMiro2 | ^GFPTRAK1 (mouse) | ^GFPTRAK2 (mouse) | ^mycTRAK2-(1–700)
